About 14,000 (4.5%) of roughly 310,000 compounds showed an effect of 50% or more. The effect is printed as a negative number. Some of the results follow. Where a SMILES comes first, the peptide text is derived from it.
These molecules were tested against human ether-à-go-go-related gene (hERG) potassium channel (human, UniProt Q12809) (assay: primary screen, population patch clamp on CHO cells stably expressing hERG).
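Note: peak tail current of the secondary pulse compared with the same well before compound.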

Chain of human ether-à-go-go-related gene (hERG) potassium channel (Q12809 whole entry, looked up): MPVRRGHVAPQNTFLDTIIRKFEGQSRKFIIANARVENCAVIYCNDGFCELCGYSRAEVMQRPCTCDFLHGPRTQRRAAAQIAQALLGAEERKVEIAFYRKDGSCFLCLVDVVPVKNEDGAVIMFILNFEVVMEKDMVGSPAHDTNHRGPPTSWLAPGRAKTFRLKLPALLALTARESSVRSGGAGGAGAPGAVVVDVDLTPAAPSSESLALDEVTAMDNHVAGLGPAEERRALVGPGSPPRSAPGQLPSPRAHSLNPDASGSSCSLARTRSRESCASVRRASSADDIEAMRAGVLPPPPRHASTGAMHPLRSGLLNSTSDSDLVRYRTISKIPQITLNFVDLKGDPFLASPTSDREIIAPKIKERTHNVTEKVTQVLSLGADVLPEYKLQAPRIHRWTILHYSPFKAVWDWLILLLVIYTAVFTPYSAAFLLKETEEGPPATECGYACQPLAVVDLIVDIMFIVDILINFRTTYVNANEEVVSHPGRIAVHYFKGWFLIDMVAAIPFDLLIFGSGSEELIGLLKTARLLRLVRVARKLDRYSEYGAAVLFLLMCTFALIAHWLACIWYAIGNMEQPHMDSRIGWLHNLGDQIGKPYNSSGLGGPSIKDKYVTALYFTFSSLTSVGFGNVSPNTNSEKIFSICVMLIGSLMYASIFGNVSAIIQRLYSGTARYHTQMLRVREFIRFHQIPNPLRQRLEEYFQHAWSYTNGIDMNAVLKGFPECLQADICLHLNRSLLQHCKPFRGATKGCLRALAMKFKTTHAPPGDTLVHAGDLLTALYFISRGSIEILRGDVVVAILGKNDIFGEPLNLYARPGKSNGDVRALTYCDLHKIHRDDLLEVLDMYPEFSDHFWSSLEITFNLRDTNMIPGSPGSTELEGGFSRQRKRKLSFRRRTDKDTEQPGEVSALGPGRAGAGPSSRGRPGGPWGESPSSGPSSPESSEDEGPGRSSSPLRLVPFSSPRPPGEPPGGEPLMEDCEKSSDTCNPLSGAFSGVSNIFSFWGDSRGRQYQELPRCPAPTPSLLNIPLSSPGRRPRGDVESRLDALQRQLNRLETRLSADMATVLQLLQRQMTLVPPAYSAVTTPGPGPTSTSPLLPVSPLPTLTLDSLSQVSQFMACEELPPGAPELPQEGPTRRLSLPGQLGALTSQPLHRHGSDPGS

Compound	hERG current change (%, negative = inhibition) at 10uM
Clc1ccc(OCc2nc(-c3ccncc3)no2)cc1	4.68%
Cc1cc2oc(=O)cc(CN(C)Cc3ccc(OC(F)F)cc3)c2cc1Cl	22.7%
O=C(NNc1ccc(Cl)nn1)c1ccc(Cl)cc1	-10%
O=S(=O)(Nc1ncn[nH]1)c1ccc2ccccc2c1	5.61%
COCCNC(=O)CSc1ccccc1C(=O)NCC1CCCCC1	17.4%
O=C(COc1ccccc1)Nc1nnc(S(=O)(=O)N2CCCC2)s1	8.58%
N#C/C(=C\c1ccc(Cl)cc1)c1nc2ccccc2o1	1.26%
CSCCC(NC(=O)c1ccccc1Cl)C(=O)N1CCN(c2ccccn2)CC1 (stereo not shown)	-35.2%
c1ccc(CN2OCC3Cn4c(nc5ccccc54)C32)cc1 (stereo not shown)	22.5%
Cc1nc(NC(=O)/C=C/c2ccc(F)cc2)sc1C(=O)N(C)C	16.5%
O=C1NC(=O)/C(=C\c2ccc(N3CCOCC3)o2)N1	6.82%
O=C(NC1CCCC1)c1cc(-c2ccccc2)nc2ccccc12	5.81%
Cc1ccc(NC(=O)Cn2cc(C=O)c3ccccc32)cc1	17.5%
Cc1ccc2nc(SCc3nc4c(cnn4-c4ccccc4)c(=O)[nH]3)[nH]c2c1	15.3%
Cc1cc(/C(N)=N/OC(=O)Nc2ccccc2)no1	-8.52%
Cc1ccccc1OCC(=O)Nc1nnc(C2CCCC2)s1	19.8%
CC(=O)NC(Cc1ccccc1)C(=O)NC(Cc1ccccc1)C(=O)O (stereo not drawn) (Ac-Phe-Phe-OH; configuration not given here)	10.4%
CCS(=O)(=O)c1ccc2oc(SCC(=O)c3c(N)n(C4CC4)c(=O)[nH]c3=O)nc2c1	23.5%
COc1cccc(/C=N/NC(=O)C(C)n2nnc3ccccc32)c1 (stereo not shown)	-1.1%
O=C(NC(=S)Nc1nc(-c2ccc(Cl)cc2)cs1)c1cccs1	18.7%
O=C(NC(=S)Nc1ccccc1N1CCOCC1)c1sc2ccccc2c1Cl	0.21%
C[C@]12C=CC(=O)C=C1CC[C@@H]1[C@@H]2[C@@H](O)C[C@@]2(C)[C@H]1CC[C@]2(O)C(=O)COC(=O)CCC(=O)NCCc1ccc(O)cc1	12.8%

Compound	hERG current change (%, negative = inhibition) at 10uM
COc1ccc(NC(=O)C(Cc2ccccc2)n2cccc2)c(OC)c1 (stereo not shown)	-13.7%
CCOC(=O)N1CCN(C(=O)C2CC(=O)N(c3ccc(OC)cc3)C2c2ccc(OC)cc2)CC1 (stereo not shown)	-13.2%
O=C(NCCN1CCOCC1)c1cc(-c2cccc(O)c2)on1	6.99%
Cc1ccc2c(c1)C1C=CCC1C(C(=O)NCCCN1CCOCC1)N2 (stereo not shown)	-3.91%
CC(NC(=O)Cn1nc(C(=O)O)c2ccccc2c1=O)c1ccccc1 (stereo not shown)	-8.74%
CCOc1ccc(CN(C)C(=O)CCNC(=O)c2ccco2)cc1	1.35%
O=C(Nc1ncc(C(F)(F)F)cc1Cl)c1ccc(S(=O)(=O)N2CCOCC2)cc1	-13.4%
CC(C(=O)N1CCc2ccccc21)N(C)CC(=O)Nc1ccc(F)cc1 (stereo not shown)	-47.9%
Cc1nc2cc3c(cc2c(C)c1C(=O)OC(C)C)OCO3.Cl	-0.944%
O=C(CCN1C(=O)/C(=C\c2cccc(Br)c2)SC1=S)NCCCN1CCOCC1	-63.4%
CCC(Sc1nc2ncccc2[nH]1)C(=O)NCCc1ccccc1 (stereo not shown)	4.35%
CC(=O)c1cccc(NC(=O)c2cccc3ccccc23)c1	-17.9%
COc1ccc(NS(=O)(=O)c2ccc(OCC(=O)N3CCOCC3)cc2)cc1Cl	8.46%
CCOc1ccc(/C=N/NC(=O)CNC(=O)c2ccc(S(=O)(=O)N3CCOCC3)cc2)cc1	11.7%
O=C(NCc1ccco1)c1ccc2nc3sc4c(c3c(=O)n2c1)CCCC4	-24.1%
COc1ccc(C2=NN(CCC(=O)NCc3cccs3)C(=O)CC2)cc1	-27.1%
COc1ccccc1N1CCN(C(=O)Cn2ncc3c([nH]c4ccccc43)c2=O)CC1	4.74%
CC1=C(C(=O)N(C)C)C(c2ccc(C)s2)NC(=S)N1 (stereo not shown)	12.3%
COC(=O)N1CCN(c2ccc(C(C)=O)cc2)CC1	-17%
CCOc1ccccc1C(=O)Nc1ccc(S(=O)(=O)N2CCN(C)CC2)cc1	1.7%
O=c1c2ccccc2nc2n1C(CSCc1ccc(Cl)cc1Cl)CS2 (stereo not shown)	-21.8%
O=S(=O)(Nc1cc(S(=O)(=O)N2CCOCC2)ccc1NCC1CCCO1)c1ccc(F)cc1 (stereo not shown)	-3.88%

Compound	hERG current change (%, negative = inhibition) at 10uM
COc1ccc(N2CCN(CC(=O)Nc3ccc(-n4cnnn4)cc3)CC2)cc1	2.26%
Cc1ccccc1OCCNc1ccc(C(F)(F)F)cc1[N+](=O)[O-]	13.4%
O=C(NNC(=O)c1cc2ccccc2cc1O)c1cccs1	7.2%
CCN(Cc1nc(-c2ccc(OC)c(OC)c2)no1)C(=O)c1ccc2c(c1)OCO2	5.32%
CC(=O)Nc1ccc(S(=O)(=O)NCC(=O)NNC(=O)c2csc(N3CCOCC3)n2)cc1	-0.267%
O=S(=O)(c1cccs1)N1CN(Cc2ccc(Cl)cc2)c2nc3ccccc3nc21	3.75%
Cc1nn(C(=O)c2ccco2)c(C)c1Br	12.3%
COc1ccc(CN(C)C(=O)c2ccc(NS(=O)(=O)c3ccc(C)c([N+](=O)[O-])c3)cc2)c(OC)c1OC	-10.1%
COC(=O)C1=C(c2ccc(Cl)c(C(F)(F)F)c2)C[C@@H]2CC[C@H]1N2C(=O)NCCNC(C)=O	3.41%
COc1ccc(Cl)cc1NC(=O)C(OC)c1ccccc1 (stereo not shown)	-11.2%
CC1Cc2ccccc2N1C(=O)Cn1c(=O)cc(O)c2ccccc21 (stereo not shown)	12.9%
CCc1cccc(CC)c1NC(=O)COC(=O)c1cccc(-c2ccc(OC(C)=O)cc2)c1	-0.529%
COc1cc(/C=C2/C(=O)ON=C2c2ccccc2)ccc1O	-11.9%
O=C(Cn1cnc2cc([N+](=O)[O-])ccc2c1=O)N(Cc1ccccc1)C1CCS(=O)(=O)C1 (stereo not shown)	-19%
NS(=O)(=O)c1ccc(NC(=O)CSc2n[nH]c(=O)n2C2CC2)cc1	5.07%
CCN(CC)S(=O)(=O)c1ccc(S(=O)(=O)N2CCCC(C(=O)NC3CC3)C2)cc1 (stereo not shown)	1.97%
COc1ccc(CCNC(=O)c2ccc(SC)cc2OC)cc1	-26.8%
CC1CCCCN1S(=O)(=O)c1csc(C(N)=O)c1 (stereo not shown)	-1.25%
Cc1nc2ccc(F)cc2cc1C(=O)NCc1ccco1	-6.4%
C/C(=N\NC(=O)c1c(Br)cnn1C)c1ccc(NC(=O)c2ccc(F)cc2)cc1	16.1%
COc1cccc(C2c3c(oc4ccccc4c3=O)C(=O)N2Cc2ccco2)c1 (stereo not shown)	5.84%
CC(Sc1nc2ccc(Br)cc2[nH]1)C(=O)O (stereo not shown)	-12%

Compound	hERG current change (%, negative = inhibition) at 10uM
O=C(NCc1ccco1)C(c1ccccc1F)N(Cc1cccnc1)C(=O)Cn1nnc2ccccc21 (stereo not shown)	-32%
COc1cccc(NC(=O)Cn2c(SCC(=O)N3CCOCC3)nc3ccccc32)c1	-4.71%
COc1cc([N+](=O)[O-])c(OC)cc1SCc1n[nH]c(=S)n1-c1ccc(C)cc1	2.28%
CC(=O)c1ccc(NC(=O)Nc2ccc(NS(=O)(=O)c3ccc(C)cc3)cc2)cc1	13.6%
Cl.c1ccc(-c2nnc(CN3CCCCC3)o2)cc1	13.8%
CCCCn1c(SCC2CCCCO2)nc2cc(S(N)(=O)=O)ccc21 (stereo not shown)	-40.8%
N#CCCN(C(=O)COC(=O)CNC(=O)c1ccc(-c2ccccc2)cc1)c1ccc(F)cc1	1.57%
CC(C)NC(C)C(=O)C12CC3CC(CC(C3)C1)C2.Cl (stereo not shown)	-12.4%
N#Cc1nc(COc2cccc(Cl)c2)oc1NCCN1CCOCC1	-44%
Cc1ccc([N+](=O)[O-])c(OCCN2CCNCC2)c1.O=C(O)C(=O)O	-14.6%
O=C(NCCNC(=O)c1cnccn1)c1cccc(Cl)c1	4.53%
CN(Cc1nc(Cc2cccc(C(F)(F)F)c2)no1)C1CC(C)(C)NC(C)(C)C1	-12.3%
Cc1ccc(NCC(O)Cn2cnc3c2c(=O)n(C)c(=O)n3C)cc1 (stereo not shown)	-36%
COc1cc(/C=C/c2[nH]c(=O)[nH]c(=O)c2[N+](=O)[O-])cc(OC)c1O	7.26%
O=C(NCC1CCCO1)C(c1cccs1)N(C(=O)Cn1nnc(-c2cccs2)n1)C1CCCC1 (stereo not shown)	-15.8%
CN(C)C(=O)Cn1c(SCC(=O)NCc2ccc3c(c2)OCO3)nc2ccccc21	4.11%
Cc1ccccc1NC(=O)CS(=O)(=O)c1cn(CC(=O)N2CCOCC2)c2ccccc12	8.14%
COc1ccc(NC(=O)COC(=O)CCCc2c[nH]c3ccccc23)cc1OC	1.75%
CCCCCO	16.7%

Reference: paper PMC4336329 (PLoS ONE, 2015)
